# Source: ChEMBL document CHEMBL4888484, “Replenishing the malaria drug discovery pipeline: Screening and hit evaluation of the MMV Hit Generation Library 1 (HGL1) against asexual blood stage Plasmodium falciparum ,using a nano luciferase reporter read-out” (2022)
# The whole screen tested about 150,000 compounds, of which about 540 (0.36%) showed an effect of 50% or more. The list shows a part of the results.
# Tested on: Plasmodium falciparum
# Assay: Primary screen in NF54 nanoGlo assay, in single point, at 2uM, 72h; a lower Z score goes with more inhibition
# Type: functional, Erythrocyte
# Details: timepoint 72 hour
Structure (SMILES),% Inhibition [%],Z score
Cc1cc(C)nc(NCc2cccnc2N2CCOCC2)n1,6,-0.9
CCn1ncc(-c2ccc3c(c2)OCCO3)c1C(=O)OC,-14,1.93
CCC(=O)N(Cc1c(-c2ccccc2)nn(C)c1Oc1ccc(OC)cc1)CC1CC1,3,-0.28
CCCn1nccc1NS(=O)(=O)c1cccc2nsnc12,6,-0.66
Cc1ccc(NCCCNC(=O)[C@@H]2CCCCCN2C)nc1,-4,0.68
Cc1cnc(C(C)N2CCCC(c3ccn[nH]3)C2)o1 (stereo not given),-4,0.36
Cc1ccc(C)c(NC(N)=NCCCn2cc(C)cn2)c1,3,-0.41
Cc1noc([C@H](C)NC(=O)N2CCC(C#N)CC2)n1,-7,0.65
COc1cccc(-c2nc(Cn3ccn4nc(-c5cc(C)ccc5C)cc4c3=O)no2)c1,-7,0.94
CCC(CC)CN(CC)C(=O)c1cc(CO)on1,-8,1.06
CCc1ccc(CNC(C)(C)CO)cc1,29,-3.94
O=C(NCCc1nc2ccccc2[nH]1)C(=O)Nc1cc(-c2ccccc2)ns1,-23,2.45
O=C(c1cnc(C2CC2)nc1)N(CCO)CC1CCCCC1,-1,0.2
CC(C(=O)N1CCc2ccccc2C1)N(C)CC1CCOC1 (stereo not given),5,-0.64
CCOc1ccc(N2C3=[N+](CCCCC3)C[C@]2(O)c2ccc(OC(F)F)cc2)cc1,1,-0.06
COc1cc(Cl)ccc1C(=O)N1CCCN(c2nnc3ccccn23)CC1,-2,0.24
CN(CCN(C(=O)[C@H]1CCc2[nH]nnc2C1)C1CC1)C1CC1,11,-1.39
C[C@@H](CNc1nc(-c2ccccc2)nc2ccccc12)N1CCOCC1,-9,1.51
C[C@@H](Cc1ccsc1)N(C)C(=O)c1cccc(C(=O)O)n1,5,-0.53
CC(C)c1noc(C2CCN(C(=O)c3cc(C#N)c[nH]3)CC2)n1,11,-2.14
CCO[C@H]1COC[C@@H]1NC(=O)c1ccc(Cl)s1,-2,0.29
COc1ccccc1CC(=O)NC[C@H](C)O,40,-1.39

Structure (SMILES),% Inhibition [%],Z score
Cc1nc(-c2csc(S(=O)(=O)N3CCC[C@H](C(=O)Nc4ccccc4C)C3)c2)no1,-17,1.96
COc1cc(N2CCC(N3CCC[C@H](C(=O)NCc4ccccn4)C3)CC2)ncn1,-22,2.02
Cc1ccccc1N1CCN(C(=O)C[C@]2(c3ccccc3F)CC(=O)N(CCN(C)C)C2=O)CC1,8,-1.08
COc1ccc(OC)c(CN(c2cnn(C)c2)S(=O)(=O)N2CCC[C@H](C)C2)c1,18,-2.06
COc1cccc(C(=O)NCC(=O)Nc2cccc(C(=O)NC3CC3)c2)c1,-9,1.32
O=C(NC1CCCC(O)C1)c1cccnc1OCc1ccccc1F (stereo not given),-5,0.58
COCCN(CC(=O)N(Cc1ccccc1)Cc1cccs1)C(=O)CC(C)C,-7,0.85
CC[C@@H](C(=O)Nc1c(C)cnn1CC)N1CCOCC1,-15,1.81
C[C@]1(C#N)CCCN(C2CCN(Cc3ccco3)CC2)C1,-11,2.05
Cc1ccc(NC(=O)Cn2c(Nc3cccc(C)c3)nc(C)cc2=O)cc1,-12,1.26
Cc1sc([C@H](C)NC(=O)OC(C)(C)C)nc1C(=O)O,-13,1.99
COc1ccccc1CN1C(=O)O[C@H]2CN(S(=O)(=O)N3CCCC3)C[C@H]21,-2,0.29
Cc1noc(C)c1NC(=O)N1CCN(Cc2ccncc2)CC1,-30,2.74
O=C1[C@@H]2C(c3ccc(Cl)cc3Cl)=NO[C@@H]2C(=O)N1c1ccc2c(c1)OCO2,14,-1.78
CC(CC(O)c1ccco1)NCc1ccncc1 (stereo not given),-4,0.59
Cc1ccc(S(=O)(=O)Nc2ccc(Oc3cc(C)nc(C)n3)cc2)cc1,-11,1.44
CCNc1nc(C)c(C(=O)N[C@H]2CC[C@H]2NC2Cc3ccccc3C2)s1,1,-0.07
CCCc1nc(N2CCC(CNC(=O)c3conc3-c3ccccc3)CC2)no1,-5,0.68
C[C@@H](CCc1ccco1)Nc1ccc2cc[nH]c2n1,-2,0.34
Cc1cccc(-c2c3c(=O)n(C)c(=O)n(C)c3c3c(C)cc(C)nn23)c1,-14,1.87
CCC(NC(=O)c1c(O)cccc1F)[C@H]1C[C@H](O)C1 (stereo not given in full),-2,0.3
CC(=O)N[C@H](C(=O)Nc1ccc(C)c(F)c1)C(C)C,30,-3.45

Structure (SMILES),% Inhibition [%],Z score
Cc1cc(C)cc(OCc2nc(CCN(C)C(=O)Nc3cccc(C(F)(F)F)c3)no2)c1,-10,0.98
COC[C@H](C)N(Cc1cccc(F)c1)C(=O)c1cnc(C)[nH]c1=O,-10,1.46
CC(=O)Nc1ccc(C)cc1S(=O)(=O)n1cc2c(=O)n(C(C)C)c(=O)n(C(C)C)c2n1,-3,0.36
CCOCc1nc(C)cc(N2CC(O)(c3cccc4ccccc34)C2)n1,-1,0.2
Cc1ccccc1NC(=O)c1ccccc1OCc1ccc(S(=O)(=O)N2CCCC2)o1,0,0
CCOc1ccnc(N2CCCN(c3ccncc3Cl)CC2)n1,-14,2.25
CCN(CC)c1ccc(C(=O)Nn2cc(C(=O)NCc3ccc(F)cc3)c3ccccc3c2=O)cc1,6,-0.91
CC1NC(=O)CCC1NC(=O)N1CC2CCC1C2 (stereo not given),-8,0.98
CNC(=O)[C@@H]1CN(Cc2ccc(C)o2)CCO1,2,-0.4
CCc1noc(-c2c(C)[nH]c(C)c2S(=O)(=O)NCc2cccc(C)c2)n1,-3,0.66
O=C(O)c1ccc2c(c1)CN(C(=O)CCC1CCC1)C2,8,-1.02
CCCC1(Cn2ccnc2-c2nccn2C)CCC1,-8,1.36
CN(Cc1cnc(C(C)(C)C)s1)Cc1nnc2n1CCOCC2,4,-0.88
COc1cccc([C@@H]2CC(=O)Nc3ccc4nn(-c5ccccc5)nc4c32)c1,-6,0.77
CCN(C)C1(CNC(=O)c2ccc(-c3cnccn3)cc2)CCCC1,-14,2.04
O=C(O)c1cccc(C(=O)N(CC2CCC2)CC(F)(F)F)c1,12,-1.7
COc1ccc(Cl)cc1N1C(=O)[C@@H]2COCCN2C1=O,-10,0.92
Cc1ccc(C)c(N2CCN(S(=O)(=O)c3c(C(=O)N4CCC(C)CC4)c(C)n(C)c3C)CC2)c1,-10,1.85
Cc1ccc(C)c(Cn2c(=O)n(Cc3ccco3)c(=O)c3ccccc32)c1,-10,1.79
COc1cc(CC2CN(C(=O)c3cc(C)nc(C)c3)C2)cc(OC)c1,5,-1.09
Cc1cc(C(=O)N2CCN(c3ccccc3)CC2)on1,-8,1.17
COc1ccc(-c2nc(N(C)C)ncc2S(C)(=O)=O)cc1,-3,0.42

Structure (SMILES),% Inhibition [%],Z score
CC(C)CCNc1c(C#N)c2c(c3nncn13)CN(C(C)C)CC2,-3,0.63
N#Cc1cccc(OCCN2CCOc3ccccc32)c1,-11,1.04
CC[C@@H](C(=O)O)N(C)CCc1ccccc1OC,-21,2.09
C[C@@H](C(=O)N1CCc2ccccc2C1)N(C)Cc1ncnn1C,-3,0.36
NC(=O)N1CCC(C(=O)N2CCN(S(=O)(=O)c3cccc(Br)c3)CC2)CC1,-10,0.81
COc1ccc(N2CCN(C(=O)c3cccc4nn[nH]c34)CC2)cc1,-7,0.73
Cc1cccc(-c2nc(N)nc3c2CN(C(=O)CCC(=O)N(C)C)[C@H]3C)c1,-1,0.14
COc1ccc(Cl)cc1C(=O)N1CCC2(CC1)CC2(F)F,21,-2.64
CN(C(=O)CC1=CCCCC1)c1nc2ccccc2o1,-13,2.28
CC1CCN(c2cc(-c3nccn3CC(=O)NCc3ccccc3Cl)ccn2)CC1,-12,1.21
Cc1cc(C)n(C[C@H](C)Nc2ncncc2C(=O)O)n1,-6,1.14
O=C(c1cn(C[C@@H]2CC(F)(F)CN2CC2CCCCC2)nn1)N1CCOCC1,34,-3.79
Cc1ccc(CNc2ncccc2F)nc1,-4,0.43
Cn1cnc2cc(C(=O)N3CCCC[C@@H]3CCC(=O)O)ccc21,-4,0.37
Fc1cc(-c2ccncc2)c2ncccc2c1,-1,0.16
Cn1ccc2c(-c3ccc4cc[nH]c(=O)c4c3)ccnc21,-9,0.88
O=C(Cn1cccc1-c1nnc(C2CCC2)o1)Nc1ccc(F)c(Cl)c1,-4,0.76
CCN(CC)S(=O)(=O)c1ccc(NC(=O)CN(C)C2CCCC2)cc1,0,-0.01
O=C(N[C@H]1C[C@@H](c2cc(=O)[nH]c(C3CC3)n2)C1)c1ccc(CO)cc1,-4,0.76
